These results are taken from the supplement of paper PMC9446081.

In all, about 39,000 compounds went through this assay and about 220 (0.56%) showed activity. Some of the results follow.
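Note: static incubation at 37 °C against the wild-type strain, values averaged over two biological replicates.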

In the assay the test system is Escherichia coli K-12 BW25113. In words: relative growth (OD600 normalised to plate interquartile mean) (fraction); higher = less growth inhibition, active = 0.2 or less. To be noted: 50 µM; LB; incubation time: overnight (16-24 h).
As to `C[C@@H]1CN([C@@H](C)CO)S(=O)(=O)c2ccc(-c3cccnc3)cc2O[C@H]1CN(C)C(=O)NC1CCCCC1`, the relative growth is inactive: 0.914.
Take `COc1ccc(C#Cc2cnc3c(c2)C(=O)N([C@@H](C)CO)C[C@H](C)[C@H](CN(C)CC2CCOCC2)O3)cc1`: the relative growth is inactive: 1.02.
Take `O=C(O)c1ccc(N[C@@H]2O[C@H](CO)[C@@H](O)[C@H](O)[C@H]2O)cc1`: the relative growth is inactive: 1.03.
With `COc1ccccc1-c1ccc2c(c1)O[C@@H](CN(C)C(=O)c1ccncc1)[C@H](C)CN([C@H](C)CO)S2(=O)=O`, the relative growth is inactive: 0.978.
As to `C[C@H](CO)N1C[C@H](C)[C@@H](CN(C)S(=O)(=O)c2ccccc2)Oc2ncc(-c3ccncc3)cc2C1=O`, the relative growth was inactive: 0.994.
Consider `Cc1noc(C)c1NC(=O)N[C@H]1C=C[C@@H](CC(=O)NCCCN(C)C)O[C@H]1CO`, for which the relative growth was inactive: 0.987.
On to `C[C@H]1CN([C@@H](C)CO)C(=O)c2cccc(NS(=O)(=O)c3cn(C)cn3)c2O[C@@H]1CN(C)C(=O)Nc1ccccc1`, for which the relative growth was inactive: 0.993.
With `C=c1ccc(C)c2c1=C(O)C(=O)N2`, the relative growth was inactive: 0.978.
With `O[C@@H]1CCCC[C@H]1O`, the relative growth is inactive: 1.02.
Regarding `NCc1csc2c1CCCC2`, the relative growth was inactive: 0.975.
For `C[C@@H]1CN([C@H](C)CO)C(=O)CCCn2cc(nn2)CO[C@H]1CN(C)C(=O)C1CC1` the value was inactive: 1.02; for `C[C@H]1CN([C@@H](C)CO)C(=O)Cc2cc(NC(=O)c3ccncc3)ccc2O[C@@H]1CN(C)S(=O)(=O)c1ccc(F)cc1`, inactive: 0.978.
Consider `C[C@@H]1CN([C@@H](C)CO)C(=O)c2cc(NC(=O)C3CCCCC3)ccc2O[C@@H](C)CCCCO[C@H]1CN(C)C(=O)Cc1ccccc1`, for which the relative growth is inactive: 1.
Consider `CC(C)CC#Cc1ccc2c(c1)O[C@@H](CN(C)C(=O)c1cnccn1)[C@H](C)CN([C@H](C)CO)S2(=O)=O`, for which the relative growth is inactive: 1.
As for `COc1cccc(-c2ccc3c(c2)O[C@H](CN(C)C(=O)C2CCOCC2)[C@@H](C)CN([C@@H](C)CO)S3(=O)=O)c1`, the relative growth was inactive: 0.997.
On to `C[C@@H]1CN([C@@H](C)CO)C(=O)c2cc(NC(=O)Nc3cccc4ccccc34)ccc2O[C@@H](C)CCCCO[C@H]1CN(C)S(=O)(=O)c1ccc(F)cc1`, for which the relative growth was inactive: 1.02.
In the case of `C[C@@H]1CN([C@H](C)CO)C(=O)Cc2cc(NC(=O)C3CC3)ccc2O[C@@H]1CN(C)S(=O)(=O)c1cn(C)cn1`, the relative growth is inactive: 0.955.
Consider `COc1ccc(OC)c(S(=O)(=O)NCCO)c1`, for which the relative growth is inactive: 1.03.
As for `C[C@H]1CN([C@@H](C)CO)C(=O)c2cc(NS(=O)(=O)c3cn(C)cn3)ccc2O[C@H]1CN(C)S(=O)(=O)c1ccc(Cl)cc1`, the relative growth was inactive: 1.01.
As for `Cc1noc(C)c1S(=O)(=O)Nc1ccc2c(c1)C(=O)N([C@H](C)CO)C[C@@H](C)[C@H](CN(C)S(C)(=O)=O)O2`, the relative growth is inactive: 0.981.
`C[C@H]1CCCCO[C@@H](CN(C)Cc2ccc3c(c2)OCO3)[C@@H](C)CN([C@@H](C)CO)C(=O)c2cc(NC(=O)Nc3ccc(F)cc3)ccc2O1`: the relative growth was inactive: 0.935.
Turning to `CO[C@H]1CN(C)C(=O)c2cc(NC(C)=O)ccc2OC[C@@H](C)N(S(=O)(=O)c2cn(C)cn2)C[C@@H]1C`, the relative growth is inactive: 1.01.
Consider `C[C@H]1CN([C@@H](C)CO)C(=O)Cc2cc(NS(=O)(=O)c3ccc(F)cc3)ccc2O[C@@H]1CN(C)S(=O)(=O)c1ccc(F)cc1`, for which the relative growth was inactive: 1.04.
Consider `C[C@H]1CN([C@@H](C)CO)C(=O)c2cc(NC(=O)CCN3CCOCC3)ccc2O[C@H]1CN(C)Cc1ccccc1`, for which the relative growth is inactive: 0.976.
For `C[C@@H]1CN([C@H](C)CO)C(=O)c2cccc(NS(=O)(=O)c3cccs3)c2O[C@@H]1CN(C)Cc1ccc(-c2ccccc2)cc1`, the relative growth was inactive: 1.01.
Regarding `C[C@@H]1CN([C@@H](C)CO)C(=O)Cc2cc(NC(=O)Nc3ccccc3)ccc2O[C@@H]1CN(C)Cc1ccc(-c2ccccc2)cc1`, the relative growth is inactive: 1.02.
For `CO[C@H]1CN(C)C(=O)c2cc(NC(=O)CC(F)(F)F)ccc2OC[C@H](C)N(S(=O)(=O)c2cn(C)cn2)C[C@H]1C` the value was inactive: 0.964; for `OCC1OC(Oc2ccc(O)cc2)C(O)C(O)C1O` (stereo unspecified), inactive: 0.993; for `O=C(C[C@@H]1C=C[C@@H](NC(=O)CN2CCOCC2)[C@@H](CO)O1)NC1CCCCC1`, inactive: 0.978.
Turning to `Cc1noc(C)c1S(=O)(=O)Nc1ccc2c(c1)CC(=O)N([C@H](C)CO)C[C@H](C)[C@@H](CN(C)Cc1ccc(Oc3ccccc3)cc1)O2`, the relative growth is inactive: 0.996.
As for `C[C@@H]1CCCCO[C@@H](CN(C)Cc2ccncc2)[C@@H](C)CN([C@H](C)CO)C(=O)c2cc(NC(=O)Cc3ccccc3)ccc2O1`, the relative growth was inactive: 1.
`CNC[C@@H]1OCCCC[C@H](C)Oc2ccc(NC(=O)c3ccncc3)cc2C(=O)N([C@H](C)CO)C[C@@H]1C`: the relative growth was inactive: 0.99.
On to `C[C@H](CO)N1C[C@H](C)[C@H](CN(C)S(=O)(=O)c2ccccc2)OCCCC[C@H](C)Oc2ccc(NC(=O)CCC(F)(F)F)cc2C1=O`, for which the relative growth was inactive: 1.01.
In the case of `CC(C)NC(=O)Nc1cccc2c1O[C@@H](CN(C)Cc1ccc3c(c1)OCO3)[C@@H](C)CN([C@@H](C)CO)C2=O`, the relative growth is inactive: 1.01.
With `COc1ccc([Si](C)(C)[C@H]2[C@H](CC(=O)N(CCO)Cc3ccccc3)O[C@@]3(C(=O)N(Cc4cccc(N5CCC5=O)c4)c4ccccc43)[C@@H]2C)cc1`, the relative growth is inactive: 1.02.
For `C[C@H]1CCCCO[C@@H](CN(C)S(=O)(=O)c2ccc(Cl)cc2)[C@@H](C)CN([C@@H](C)CO)C(=O)c2cc(NC(=O)NC3CCCCC3)ccc2O1` the value was inactive: 1; for `COC(=O)[C@@H](N)Cc1ccc(O)c(O)c1`, inactive: 0.974.
Take `C[C@@H]1CCCCO[C@H](CN(C)C(=O)NC2CCCCC2)[C@H](C)CN([C@@H](C)CO)C(=O)c2cc(NC(=O)Cc3ccccc3)ccc2O1`: the relative growth is inactive: 0.97.
Take `COCC#Cc1ccc2c(c1)O[C@H](CN(C)S(C)(=O)=O)[C@@H](C)CN([C@H](C)CO)S2(=O)=O`: the relative growth was inactive: 0.982.
Next, `CC(C)(C)N1C[C@H](C(=O)O)CC1=O`: inactive: 1.
On to `Cc1ccc(-c2ccc3c(c2)O[C@H](CN(C)C(=O)Nc2ccc(C(F)(F)F)cc2)[C@H](C)CN([C@H](C)CO)S3(=O)=O)cc1`, for which the relative growth was inactive: 0.94.
As for `Cc1ccc(S(=O)(=O)Nc2ccc3c(c2)C(=O)N([C@@H](C)CO)C[C@@H](C)[C@@H](CN(C)S(=O)(=O)c2ccc(Cl)cc2)OCCCC[C@@H](C)O3)cc1`, the relative growth is inactive: 1.04.
For `C[C@H]1CCCCO[C@H](CN(C)S(=O)(=O)c2cn(C)cn2)[C@@H](C)CN([C@@H](C)CO)C(=O)c2cc(NS(=O)(=O)c3cn(C)cn3)ccc2O1`, the relative growth was inactive: 0.995.
Next, `O=C(O[C@@H]1O[C@@H]2COC(=O)c3cc(Oc4c(C(=O)O)cc(O)c(O)c4O)c(O)c(O)c3-c3c(cc(O)c(O)c3O)C(=O)O[C@H]2[C@H](OC(=O)c2cc(O)c(O)c(O)c2)[C@H]1OC(=O)c1cc(O)c(O)c(O)c1)c1cc(O)c(O)c(O)c1`: inactive: 0.558; `COc1cc(NC(=O)c2cccc(-n3cc(NC(=O)Nc4cccc(C)c4)cn3)c2)cc(OC)c1OC`: inactive: 0.982; `CC(C)[Si]1(C(C)C)OCc2cc(-c3ccc(-c4ccc(Cl)c(Cl)c4)o3)nc(-c3ccc(Oc4ccccc4)cc3)c21`: inactive: 1.
For `C[C@@H]1CN([C@@H](C)CO)C(=O)c2c(c3ccccc3n2C)-c2ccccc2CO[C@@H]1CN(C)Cc1ccccc1`, the relative growth is inactive: 0.997.
On to `CC(C)C(=O)NCc1nccc(N(C)C)n1`, for which the relative growth is inactive: 1.03.
Next, `C[C@@H]1CN([C@@H](C)CO)C(=O)CCCn2cc(nn2)CO[C@@H]1CN(C)C(=O)Nc1ccccc1C(F)(F)F`: inactive: 1.01; `C[C@@H]1CN([C@H](C)CO)C(=O)c2cc(NS(=O)(=O)c3cccs3)ccc2O[C@@H](C)CCCCO[C@@H]1CN(C)C(=O)CCC(F)(F)F`: inactive: 0.986.
On to `CNC(=O)C[C@H]1C[C@@H]2CN(S(=O)(=O)c3cccnc3)C[C@@H]2O1`, for which the relative growth was inactive: 0.995.
Next, `CC(C)NC(=O)N(C)C[C@H]1OCCCC[C@H](C)Oc2ccc(NC(=O)Nc3ccc(C(F)(F)F)cc3)cc2C(=O)N([C@H](C)CO)C[C@H]1C`: inactive: 1.02; `C[C@@H]1CN([C@H](C)CO)C(=O)c2cccc(NC(=O)c3ccc(-c4nccs4)cc3)c2O[C@H]1CN(C)C(=O)Nc1ccc(C(F)(F)F)cc1`: inactive: 0.847.
Next, `COc1ccc(S(=O)(=O)N(C)C[C@@H]2Oc3ccc(NC(=O)NC(C)C)cc3CC(=O)N([C@@H](C)CO)C[C@@H]2C)cc1`: inactive: 1.01; `CC(C)CC#Cc1ccc2c(c1)O[C@@H](CN(C)C(=O)c1cnccn1)[C@@H](C)CN([C@@H](C)CO)S2(=O)=O`: inactive: 1.01.
For `O=S(=O)(NCC[C@@H]1CC[C@@H](NS(=O)(=O)c2cccc(Cl)c2)[C@@H](CO)O1)c1cccc(F)c1` the value was inactive: 1.01; for `COCC#Cc1cnc2c(c1)C(=O)N([C@H](C)CO)C[C@H](C)[C@@H](CN(C)C(=O)CN1CCOCC1)O2`, inactive: 1; for `Cc1noc(C)c1S(=O)(=O)Nc1ccc2c(c1)C(=O)N([C@@H](C)CO)C[C@@H](C)[C@H](CN(C)S(=O)(=O)c1ccc(Cl)cc1)O2`, inactive: 0.995.
For `CCOC(=O)C(CCc1ccccc1)NC(C)C(=O)N1CCCC1C(=O)O.O=C(O)C=CC(=O)O` (stereo unspecified), the relative growth is inactive: 1.07.
Next, `CCOc1cc(CC(=O)NC(CC(C)C)c2ccccc2N2CCCCC2)ccc1C(=O)O` (stereo unspecified): inactive: 0.844.
For the molecule `CCS(=O)(=O)Nc1ccc2c(c1)C(=O)N(C)[C@H]1CC[C@H](CC(=O)N3CCN(C)CC3)O[C@H]1CO2`, the relative growth is inactive: 1.01.
